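Compound exposure: 48 hours, 5 concentrations, 96-well plates. The concentration for 50% growth inhibition is given as GI50. TGI: total growth inhibition.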
System: NCI-H322M lung
Test: DTP human tumour cell line panel, 48 h

| Structure (SMILES) | GI50 [µM] | TGI [µM] |
| --- | --- | --- |
| N#Cc1c(NC(=O)c2ccc(C(F)(F)F)cc2)sc2c1CCC(O)=C2 | 6.49 | 32.5 |
| CN1CCN(CCS(=O)(=O)Nc2cc(-c3ccc4ncnc(Nc5ccc(F)c(Cl)c5)c4c3)cnc2Cl)CC1 | 1.57 | 5.38 |
| Cc1noc2c(Cc3ccccc3)nn(CC(=O)N/N=C/c3ccc(Br)cc3)c(=O)c12 | 17.8 | > 100 |
| O=C(Nc1ccc(OCc2ccccc2)cc1)Nc1ccc(Cl)c(C(F)(F)F)c1 | 1.92 | 18.8 |

From PubChem BioAssay (NCI)
